Molecules are shown by their SMILES. About 540 (0.36%) of roughly 150,000 compounds showed an effect of 50% or more. Some of the results follow.

For orientation: % Inhibition means the relative decrease from the control value, in per cent.

The assay relates to Plasmodium falciparum. Briefly: Primary screen in NF54 nanoGlo assay, in single point, at 2uM, 72h; a lower Z score goes with more inhibition. The class given is functional, Erythrocyte. Conditions: timepoint 72 hour.
As to `Cc1ccc2cc(-c3nccn3CCN(C)C)c(N3CCOCC3)nc2c1`, the “% Inhibition” value is 11% and the Z score is given as -1.46.
For `CCN(C)c1nc(N2CCN(c3ccc(C)cc3)CC2)nc2c1CN(C(=O)c1ccccc1OC)CC2` the same measures were 8% and -1.04.
With `CCOC(=O)c1ncn2c1CN(C(=O)OC(C)(C)C)CC2`, the “% Inhibition” value was -10% and the Z score was determined as 1.33.
For `O=C1NCCCCCCN(C(=O)Nc2ccccc2F)[C@H]2CCCC[C@@H]12` the same measures were -4% and 0.52.
As to `CCn1ncc(NC(=O)c2c(F)cccc2F)c(N2CCOCC2)c1=O`, the “% Inhibition” value was 2% and the Z score is on record as -0.29.
For the molecule `CC(=O)OC(C)(C)C(=O)N1CC[C@H](Oc2cccc(C)n2)C1`, the “% Inhibition” value is -10% and the Z score was determined as 1.99.
In the same order, the values of `Cc1noc(C)c1CC(=O)NC1CCCCCCC1` are -12% and 2.06.
For `Cc1cc(C)n(C(=O)Cc2nnc(-c3cccs3)o2)n1` the same measures were -7% and 0.85.
Take `O=C1N(CC2CC2)CCC[C@@]12CCN(Cc1nc3c(s1)CCCC3)C2`: the “% Inhibition” value is given as -5% and the Z score is reported as 0.81.
Take `Cc1cc(C(=O)N[C@H]2C[C@H](c3nnc(CO)n3C3CC3)C2)ccc1F`: the “% Inhibition” value is listed as -18% and the Z score came out at 2.27.
`Brc1cccc(C2(c3noc(-c4cnccn4)n3)CCOCC2)c1`: the “% Inhibition” value is reported as 35% and the Z score is listed as -3.97.
`Cc1ccc(S(=O)(=O)N2CCC(C(=O)C3C(=O)CCCC3=O)CC2)cc1`: the “% Inhibition” value worked out at 0% and the Z score is reported as -0.04.
`CCC1C(C)CCN1CC(=O)N1CCOC(C)C1` (stereo not drawn): the “% Inhibition” value came to 10% and the Z score is -1.17.
As to `CN1CCN(c2ccc(-c3cccc4cccnc34)nn2)CC1`, the “% Inhibition” value is on record as -9% and the Z score came to 1.21.
`O=C(NCc1ccccc1)[C@]1(F)CCN(S(=O)(=O)Cc2cccc(F)c2)C1`: the “% Inhibition” value was -3% and the Z score was determined as 0.57.
For the molecule `O=C(NCc1cccnc1-c1ccccc1)c1ccccc1F`, the “% Inhibition” value is reported as 5% and the Z score was -0.62.
In the same order, the values of `NC(=O)C1(NC(=O)c2ccnc(OCC(F)F)c2)CCOCC1` are 10% and -0.91.
In the case of `Nc1nnc(CNC(=O)[C@H]2C[C@@H]2c2ccccc2)s1`, the “% Inhibition” value is on record as -7% and the Z score is given as 1.38.
For `CCN1C(=O)NC(=O)C12CCN(Cc1cnc(N3CCOCC3)nc1)CC2` the same measures were -9% and 1.76.
With `CNC1CC[C@H]2[C@@H]3CC[C@H]4C[C@@H](O)CC[C@]4(C)[C@H]3CC[C@]12C` (stereo partly drawn), the “% Inhibition” value amounted to 1% and the Z score is recorded as -0.23.
For `CCc1nc(O)c(C(=O)N2CCN(C)c3ncccc32)cc1C`, the “% Inhibition” value was 3% and the Z score was -0.41.
Regarding `CCCc1cc(N2CC[C@]3(OC)CC[C@@H](OCC4CC4)C[C@H]23)nc(C)n1`, the “% Inhibition” value is given as -15% and the Z score came out at 1.36.
For `C=CCC[C@@H](CN(C)Cc1cccnc1)Oc1ccc(N(C)C)nn1` the same measures were -15% and 1.32.
With `Cc1cc(-c2ccc(CN3CCCCC3)cn2)[nH]n1`, the “% Inhibition” value stood at 1% and the Z score was -0.13.
`Cc1nc(CC(=O)N2C[C@H](C(=O)O)[C@@H](c3ccc(F)cc3)C2)cs1`: the “% Inhibition” value is 3% and the Z score is -0.73.
Consider `CC(C)c1nn(C)cc1-c1noc(C2(O)CCCC2)n1`, for which the “% Inhibition” value is on record as -12% and the Z score stood at 1.88.
In the same order, the values of `CCC(=O)NS(=O)(=O)c1c(C)cccc1Cl` are -9% and 0.94.
For `Cc1nn(C)c(Cl)c1[C@H]1CC(=O)Nc2c1cnn2-c1ccccc1` the same measures were -5% and 0.93.
Turning to `CCNS(=O)(=O)CCNC(=O)N1CCCc2cccc(Cl)c21`, the “% Inhibition” value was -8% and the Z score was found to be 0.7.
For `Cc1c(Cl)ccc2c1NC(=O)[C@]21N[C@@H](CCC(N)=O)[C@H]2C(=O)N(c3cccc(Cl)c3)C(=O)[C@H]21` the same measures were 6% and -0.75.
Consider `Cc1cc(C)nc(NC(=O)c2cc(C)on2)n1`, for which the “% Inhibition” value is -15% and the Z score is on record as 1.69.
Take `c1ccc2[nH]c(C3CCN(c4nn5cnnc5c5ccccc45)CC3)nc2c1`: the “% Inhibition” value is on record as -15% and the Z score was 2.33.
For `COc1ccc(C(=O)N2CCN(C3CC(OCc4ccccc4)C3)CC2)cc1` (stereo not drawn) the same measures were -10% and 1.23.
For `CC(=O)Nc1nc(CN(C(C)C)C2CC2)cs1`, the “% Inhibition” value is recorded as -7% and the Z score is recorded as 0.72.
For `CC1(N2CCOCC2)CCN(C(=O)c2ccnn2C(F)F)CC1`, the “% Inhibition” value is given as -2% and the Z score amounted to 0.31.
In the case of `O=C(NCc1ccccc1CN1CCC[C@@H]1CO)Nc1cccc2[nH]ccc12`, the “% Inhibition” value is reported as 6% and the Z score was -1.15.
As to `CCCCC(C)C(=O)N1CCCCC1Cn1ccnn1` (stereo not drawn), the “% Inhibition” value was -8% and the Z score came out at 0.83.
On to `CC(=O)NCCC(=O)N1CCC([C@H](Cc2ccccc2C)N(C)C(=O)Cn2cccn2)CC1`, for which the “% Inhibition” value was -12% and the Z score is recorded as 1.56.
Take `Cc1nonc1CN1CC[C@H](O)CC(C)(C)C1`: the “% Inhibition” value was -11% and the Z score was 1.51.
As to `CC(C)CC[C@H](C)NC(=O)CS(=O)(=O)Cc1ccc(F)cc1Cl`, the “% Inhibition” value is recorded as 6% and the Z score was -0.84.
Turning to `CCc1ccc([C@@H]2CNCCN2C(=O)c2cn(C)cn2)cc1`, the “% Inhibition” value is listed as -4% and the Z score is on record as 0.54.
For `CC(C)(C)c1ccc(C(=O)N[C@H]2C[C@@H]3CC[C@H]2C3)cc1` the same measures were 41% and -4.59.
In the same order, the values of `C=CCOC(=O)N1CCN(C(=O)OCC=C)CC1` are 4% and -0.53.
For the molecule `CC(=O)N1CCCC[C@H]1c1nc(-c2ccc3[nH]c(C)c(C)c3c2)no1`, the “% Inhibition” value is listed as -11% and the Z score is on record as 2.
Consider `O=C(CCC1CCCC1)Nc1nc(-c2ccccc2)cs1`, for which the “% Inhibition” value was determined as 12% and the Z score is listed as -1.76.
In the same order, the values of `O=C(Nc1ccc(CC(=O)N2CCc3ccccc32)cc1)[C@H]1CCOC1` are -6% and 0.66.
On to `CCOc1ccc2nc3n(c2c1)CCCN3`, for which the “% Inhibition” value stood at 32% and the Z score was -3.63.
For `Cn1cc(CC(=O)NCc2ccc(F)cc2)c2cccnc21` the same measures were -9% and 1.06.
As for `COCCN(CC(=O)N1N=C(c2cccn2C)C[C@H]1c1ccc(OC)cc1)C(=O)NC(C)(C)C`, the “% Inhibition” value was -4% and the Z score was found to be 0.43.
For `CCn1cc(-c2ccc(C)cc2)cc1C(=O)N[C@@H](C)c1cccnc1` the same measures were 3% and -0.46.
Consider `CCN(CC(=O)Nc1c(F)cccc1F)C(=O)c1c(-c2ccccc2Cl)noc1C`, for which the “% Inhibition” value was -9% and the Z score is reported as 1.84.
On to `CCCNC(=O)CN1C[C@H](C(F)(F)F)[C@@H](S(=O)(=O)N(C)C)C1`, for which the “% Inhibition” value is -12% and the Z score turned out to be 1.2.
For `Cc1cn(Cc2nc(CC(N)=O)nn2CCc2ccccc2)c(=O)[nH]c1=O` the same measures were -4% and 0.43.
In the same order, the values of `CC(C)CCNC(=O)N1CCN(S(=O)(=O)c2ccc3c(ccn3C)c2)CC1` are -13% and 1.76.
With `O=C(CCc1cccnc1)N1CCC[C@H](Cc2nc3ccccc3[nH]2)C1`, the “% Inhibition” value is on record as 1% and the Z score was -0.14.
Turning to `O=C(c1ccncc1)N1CCC[C@H]1c1nc2ccccc2[nH]1`, the “% Inhibition” value is given as -10% and the Z score worked out at 1.3.
Turning to `Cc1ccccc1C1(C(=O)N2CCC(O)(CN)CC2)CCC1`, the “% Inhibition” value is on record as 1% and the Z score is on record as -0.24.
On to `Cc1nc(-c2csc(S(=O)(=O)NCc3ccc(F)cc3Cl)c2)sc1C`, for which the “% Inhibition” value was -10% and the Z score stood at 1.46.
As for `Cc1nc([C@@H]2COCCN2S(=O)(=O)c2cc(F)ccc2Cl)no1`, the “% Inhibition” value was -2% and the Z score stood at 0.36.
On to `CCOc1ccc(CN2CCc3nc(N4CCCC4)ncc3C2)cc1OCC`, for which the “% Inhibition” value is -7% and the Z score is on record as 0.98.
Take `Cc1ccc(-n2[nH]c(C(=O)N3CC=C(C(F)(F)F)CC3)cc2=O)cc1`: the “% Inhibition” value is on record as -10% and the Z score stood at 1.15.
As to `CC(=O)N[C@H]1C[C@H]2CN(S(=O)(=O)c3cccc(Cl)c3)[C@@H](CC(C)C)C(=O)N2C1`, the “% Inhibition” value is -20% and the Z score was 1.78.
With `O=C(CN(c1ccncc1)S(=O)(=O)c1ccccc1)Nc1ccc(N2CCCCC2)cc1`, the “% Inhibition” value is 3% and the Z score was -0.45.
`Cc1cc(C)n(-c2ccnc(N3CCN(C(C)C)CC3)n2)n1`: the “% Inhibition” value is 2% and the Z score is reported as -0.47.
`COc1ccc(C)cc1S(=O)(=O)N1CC(c2ccncc2)C1`: the “% Inhibition” value is given as -4% and the Z score is given as 0.72.
Consider `COc1ccccc1C(=O)Nc1ccc(OCc2coc(-c3ccc(F)cc3)n2)cc1`, for which the “% Inhibition” value is 9% and the Z score is recorded as -0.81.
Take `Cc1noc(C)c1COc1ccc(C(=O)N[C@@H]2CN(C(=O)Nc3ccc(F)cc3)CCC[C@H]2O)cc1`: the “% Inhibition” value is recorded as 32% and the Z score was -3.58.
In the same order, the values of `O=C(O)C(c1ccsc1)N1CCCC(NS(=O)(=O)c2cccc(F)c2)C1` (stereo not drawn) are -6% and 0.9.
Consider `Cc1nc([C@H]2CC23CCN(C(=O)Nc2ccc4c(c2)OCCO4)CC3)no1`, for which the “% Inhibition” value was -4% and the Z score is listed as 0.52.
For `CCN=C(NCC1CC1)N1CCC(OCC)CC1` the same measures were 2% and -0.22.
As to `CC(NS(=O)(=O)c1cncc(F)c1)C1CCCO1` (stereo not drawn), the “% Inhibition” value is reported as 0% and the Z score is on record as -0.09.
`CCC1(c2ccc(Cl)cc2)CCN(C(=O)C2=C[S@+]([O-])CCC2)CC1`: the “% Inhibition” value was -14% and the Z score turned out to be 1.99.
Regarding `c1cnc(N2CCC([C@H]3CCN(Cc4nccs4)C3)CC2)nc1`, the “% Inhibition” value is recorded as -2% and the Z score was found to be 0.45.
Consider `CCOc1cc([C@H]2Nc3ccccc3C(=O)N2c2ccc(OC)cc2)ccc1OCc1ccc(F)cc1`, for which the “% Inhibition” value was found to be 4% and the Z score is on record as -0.5.
As to `CCN(CC)S(=O)(=O)N1CCOC(C)(C)C1`, the “% Inhibition” value was found to be 6% and the Z score is -0.59.
Turning to `Cc1cc(CN(C)Cc2ccc3c4c(cccc24)C(=O)OC3)no1`, the “% Inhibition” value was -4% and the Z score stood at 0.63.
As to `CCn1ccc(C(=O)N2CCC(CCC(=O)N3CCOCC3)CC2)cc1=O`, the “% Inhibition” value is recorded as -7% and the Z score is reported as 0.61.
For the molecule `CCCN(CC#N)CC(=O)NCc1ccccc1OC`, the “% Inhibition” value is listed as -8% and the Z score came out at 1.04.
For the molecule `N#Cc1cc(CN2CCC[C@H]2c2ccncc2)ccc1F`, the “% Inhibition” value is reported as -17% and the Z score is 2.45.
With `COc1ccc(CNC(=O)c2cnn3c(-c4ccncc4)ccnc23)cc1OC`, the “% Inhibition” value is on record as 0% and the Z score turned out to be 0.06.
Regarding `COc1ccccc1CNc1nc(C)no1`, the “% Inhibition” value worked out at 5% and the Z score is given as -0.6.
Regarding `O=c1nc2n(nc1-c1ccccc1)C1(CCC1)Nc1ccccc1-2`, the “% Inhibition” value was determined as 54% and the Z score is on record as -13.48.
In the case of `CCC(CC)(CC)NCC(=O)Nc1c(Br)cc(C)cc1Br`, the “% Inhibition” value was 0% and the Z score was 0.01.
`Cc1ccc(C(N)=O)c(NCC2(N3CCN(C)CC3)CCCC2)n1`: the “% Inhibition” value is recorded as -17% and the Z score is listed as 1.6.

The values above are taken from ChEMBL document CHEMBL4888484, “Replenishing the malaria drug discovery pipeline: Screening and hit evaluation of the MMV Hit Generation Library 1 (HGL1) against asexual blood stage Plasmodium falciparum ,using a nano luciferase reporter read-out” (2022).
